Consider twelve compounds from the supplement of paper PMC4604168 (melanoma cell lines).

The other results are listed elsewhere or left out. Repeats are few or missing, and single values can be far off.
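Also: cells treated in 1,536-well plates, then fixed and DAPI-stained, with nuclei counted from automated high-throughput microscope images.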

The subject of the assay is SkMel28. Kind of assay: cell count relative to DMSO control; melanoma cells; higher = more viable cells. The note with it: library dose: standard library concentration; 72 h.
`Cc1cc(Nc2cc(N3CCN(C)CC3)nc(Sc3ccc(NC(=O)C4CC4)cc3)n2)n[nH]1` [Tozasertib] + O=C(CCCCCCC(=O)Nc1ccccc1)NO [vorinostat] (first compound 0.03 µM, partner dose 0.4 µM) displayed a cell count of 22.8%.

Take `Cc1cc(Nc2cc(N3CCN(C)CC3)nc(Sc3ccc(NC(=O)C4CC4)cc3)n2)n[nH]1` [Tozasertib] + Nc1nc(F)nc2c1ncn2[C@@H]1O[C@H](CO)[C@@H](O)[C@@H]1O [fludarabine] (first compound 0.03 µM, partner dose 1 µM): the cell count was 4.63%.

Regarding `N#CC[C@H](C1CCCC1)n1cc(-c2ncnc3[nH]ccc23)cn1` [ruxolitinib] + C=CCNC1=C2C[C@@H](C)C[C@H](OC)[C@H](O)[C@@H](C)/C=C(\C)[C@H](OC(N)=O)[C@@H](OC)/C=C\C=C(/C)C(=O)NC(=CC1=O)C2=O [Tanespimycin] (first compound 5 µM, partner dose 0.01 µM), the cell count worked out at 82.3%.

`N#CC[C@H](C1CCCC1)n1cc(-c2ncnc3[nH]ccc23)cn1` [ruxolitinib] + CO[C@@H]1[C@H](N(C)C(=O)c2ccccc2)C[C@H]2O[C@]1(C)n1c3ccccc3c3c4c(c5c6ccccc6n2c5c31)C(=O)NC4 [Midostaurin] (first compound 5 µM, partner dose 0.4 µM) yielded a cell count of 44.2%.

Take `Cc1cc(Nc2cc(N3CCN(C)CC3)nc(Sc3ccc(NC(=O)C4CC4)cc3)n2)n[nH]1` [Tozasertib] + COc1cc2c(Oc3ccc4[nH]c(C)cc4c3F)ncnc2cc1OCCCN1CCCC1 [cediranib] (first compound 0.03 µM, partner dose 2 µM): the cell count is 49.7%.

For the compound `N#CC[C@H](C1CCCC1)n1cc(-c2ncnc3[nH]ccc23)cn1` [ruxolitinib] + O=C(/C=C/c1cccnc1)NCCCCC1CCN(C(=O)c2ccccc2)CC1 [FK866] (first compound 5 µM, partner dose 0.05 µM), the cell count was determined as 69.7%.

For the compound `CC[C@]1(O)C[C@H]2CN(CCc3c([nH]c4ccccc34)[C@@](C(=O)OC)(c3cc4c(cc3OC)N(C=O)[C@H]3[C@@](O)(C(=O)OC)[C@H](OC(C)=O)[C@]5(CC)C=CCN6CC[C@]43[C@@H]65)C2)C1` [vincristine] + COc1cc(Nc2ncc(F)c(Nc3ccc4c(n3)NC(=O)C(C)(C)O4)n2)cc(OC)c1OC [Tamatinib] (first compound 0.0005 µM, partner dose 2 µM), the cell count was determined as 19.8%.

As for `N#CC[C@H](C1CCCC1)n1cc(-c2ncnc3[nH]ccc23)cn1` [ruxolitinib] + CC1(C)NC(=O)N(c2ccc([N+](=O)[O-])c(C(F)(F)F)c2)C1=O [nilutamide] (first compound 5 µM, partner dose 5 µM), the cell count turned out to be 88.7%.

For the compound `CC[C@]1(O)C[C@H]2CN(CCc3c([nH]c4ccccc34)[C@@](C(=O)OC)(c3cc4c(cc3OC)N(C=O)[C@H]3[C@@](O)(C(=O)OC)[C@H](OC(C)=O)[C@]5(CC)C=CCN6CC[C@]43[C@@H]65)C2)C1` [vincristine] + CC1(C)NC(=O)N(c2ccc([N+](=O)[O-])c(C(F)(F)F)c2)C1=O [nilutamide] (first compound 0.0005 µM, partner dose 5 µM), the cell count was found to be 75.1%.

Turning to `N#CC[C@H](C1CCCC1)n1cc(-c2ncnc3[nH]ccc23)cn1` [ruxolitinib] + CC(C)C[C@H](NC(=O)[C@H](Cc1ccccc1)NC(=O)c1cnccn1)B(O)O [Bortezomib] (first compound 5 µM, partner dose 0.005 µM), the cell count came out at 28%.

In the case of `CC[C@]1(O)C[C@H]2CN(CCc3c([nH]c4ccccc34)[C@@](C(=O)OC)(c3cc4c(cc3OC)N(C=O)[C@H]3[C@@](O)(C(=O)OC)[C@H](OC(C)=O)[C@]5(CC)C=CCN6CC[C@]43[C@@H]65)C2)C1` [vincristine] + COC(=O)c1sccc1S(=O)(=O)Nc1ccc(Nc2ccccc2)cc1OC [GSK0660] (first compound 0.0005 µM, partner dose 5 µM), the cell count was found to be 17.2%.

Regarding `N#CC[C@H](C1CCCC1)n1cc(-c2ncnc3[nH]ccc23)cn1` [ruxolitinib] + CS(=O)(=O)CCNCc1ccc(-c2ccc3ncnc(Nc4ccc(OCc5cccc(F)c5)c(Cl)c4)c3c2)o1 [lapatinib] (first compound 5 µM, partner dose 4 µM), the cell count came out at 72.9%.
